# Measurements: patent US11446314B2, “Immunoablative therapies” (AVM Biotechnology LLC, priority 2018, dated 2022)
# Tested on: bone marrow mesenchymal stem cells
# Test: Horse sternal bone marrow MSC number and trilineage differentiation
# Assay type: in vivo
# Details: horses, 6 mg/kg HED, one hour IV infusion
compound,measurement,value
C[C@@H]1C[C@H]2[C@@H]3CCC4=CC(=O)C=C[C@]4(C)[C@@]3(F)[C@@H](O)C[C@]2(C)[C@@]1(O)C(=O)CO [dexamethasone],"trilineage differentiation capacity of the MSC towards osteocytes, chondrocytes or adipocytes",did not alter
